Among all 110,000 compounds or so, about 20 (0.02%) were called active. Inconclusive results, whose numbers are uncertain, are shown with a selection of clear calls. Calls follow the shape of the dose curve; as a rule, active = well fitted activation curve with a large enough effect; inconclusive = small, poorly fitted or top-dose-only effect; inactive = no such curve, though single readings can be large or run the other way. No potency is given beside an inconclusive call; the fits are too rough.
Assay: qHTS Assay for Compounds that Induce Erasure of Genomic Imprints;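 as to activity change, positive = activation: 0% = negative control wells on the plate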
Settings: mouse ES Peg3-LacZ reporter, beta-gal luminescence, 40 h; activity change, positive = activation: at 10.9 µM (top of the series) unless noted
Procedure, shortened: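 Gelatin-coated wells received 300 freshly trypsinized female ES cells with a Peg3LacZ-Neo reporter on the maternal allele, then incubated 40 hours at 37C. BetaGlo was added for 5 minutes at room temperature before a single luminescence read.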
Potency is read from the fitted curve at half-maximal effect; tags tell the direction and shape of the fitted curve.

Structure (SMILES) | Potency | activity change, positive = activation
CCC(C(=O)Nc1cc(OC)ccc1OC)n1c(C)c2cnn(-c3ccccc3)c(=O)c2c1C (configuration not stated) | inactive | 
Cc1ccc2oc(C(=O)Nc3cccc(-c4nc5ccccc5s4)c3)c(C)c2c1 | inactive | 
COC(=O)c1ccc(C)c(NC(=O)CN(c2cc(OC)ccc2OC)S(C)(=O)=O)c1 | inconclusive [activator, single point] | 
Cc1cc(=O)[nH]c(SCn2nnc3ccccc3c2=O)n1 | inactive | 
COc1ccc(C2C3=C(CCCC3=O)Nc3nc4ccccc4n32)c(OC)c1OC (configuration not stated) | inactive | 
CC(C)(C)OC(=O)[C@H](C1N[C@@H](C(=O)O)C(C)(C)S1)N1C(=O)c2ccccc2C1=O (some centres not stated) | inactive | 
Cc1ccc(/C=C/c2onc(C)c2S(=O)(=O)N2CCC(C(=O)N3CCN(c4ccccc4F)CC3)CC2)cc1 | inactive | 
O=C(Nc1cccc(F)c1)C1CCN(C(=O)Cc2ccccc2)CC1 | inconclusive [activator, single point] | 
CC(=O)Nc1ccc(S(=O)(=O)NCCc2cn3ccsc3n2)cc1 |  | inconclusive: 51.7% [activator]
C=C(C)COc1ccc2c(C)c(C)c(=O)oc2c1OCC(=C)C | inactive | 
COc1ccc(OC)c(NC(=O)CN2C(=O)CCc3cc(S(=O)(=O)N4CCCCC4)ccc32)c1 |  | inconclusive: 31.7% [activator]
O=C(Nc1ccc(Cl)cc1F)c1cc(S(=O)(=O)NCc2ccc3c(c2)OCO3)ccc1F |  | inconclusive: 42.6% [activator]
COc1cccc(N2CCN(C(=O)c3cnn(-c4ccc(C)cc4C)c3C3CCN(C(=O)OC(C)(C)C)CC3)CC2)c1 |  | inconclusive: 127% [activator]
COc1ccc(/C=N/n2cc(-c3ccccc3)nc2N)cc1 | inactive | 
Cc1cccc(NC(=O)CCn2cnc3ccccc3c2=O)c1 |  | inconclusive: 31.1% [activator]
Cc1ccc2c(=O)cc(C(=O)Nc3sc4c(c3C(=O)NCC3CCCO3)CCC4)oc2c1 (configuration not stated) |  | inconclusive: 35.5% [activator]
O=C(CC1N=C2c3ccccc3N=C(SCc3ccccc3Cl)N2C1=O)NCCc1ccccc1 (configuration not stated) |  | inconclusive: 41.2% [activator]
COC(=O)c1cccc(NC2=NS(=O)(=O)c3ccccc32)c1 | inactive | 
N#Cc1c(C(F)(F)F)cc(-c2cccs2)nc1SCc1ccc(F)cc1 |  | inconclusive: 32.4% [activator]
NC(=O)NCCS[C@H]1CCCC[C@@H]1O | inactive | 
O=S(=O)(NCCc1csc2nc(-c3ccccc3)nn12)c1cc(F)ccc1F | inactive | 
c1ccc2c(c1)NC1(CCCCC1)n1c-2nc2ccccc21 | inactive | 
O=[N+]([O-])c1ccc(NN=C2c3ccccc3Cc3ccccc32)c([N+](=O)[O-])c1 | inactive | 
COc1ccc(C(=O)NCC(c2ccco2)S(=O)(=O)c2ccc(F)cc2)cc1 (configuration not stated) | inactive | 

Structure (SMILES) | Potency | activity change, positive = activation
CCc1ccc(CNC(=O)c2cc3n(n2)CCCN(Cc2ccccc2)C3=O)cc1 |  | inconclusive: 33% [activator]
CCCc1cc(=O)[nH]c(SCC(N)=O)n1 | inconclusive [activator, single point] | 
N#Cc1cccc(-c2nc(NCCN3CCOCC3)c3ccccc3n2)c1 | inconclusive [activator, single point] | 
Cc1cc(N2CCC(C)CC2)nc2ccc(NC(=O)Cc3c(F)cccc3Cl)cc12 |  | inconclusive: 58.1% [activator]
COc1ccc(OC)c(CNC(=O)c2ccc3c(c2)c(C)c(C)n3Cc2ccc(Cl)cc2)c1 |  | inconclusive: 40.2% [activator]
Cc1cccc(OCCNc2nc3c(c(=O)n(C)c(=O)n3C)n2C)c1 | inconclusive [activator, single point] | 
O=c1c(-c2ccccc2)nc2cnc(Nc3ccccc3)nc2n1C[C@H]1CCCO1 | inconclusive [activator, single point] | 
Cc1cccc(-n2c(CNC(=O)c3cccc(F)c3)nnc2SCC(=O)Nc2ccccc2F)c1 |  | inconclusive: 50.3% [activator]
Cc1ccc(NC(=O)c2cc(S(=O)(=O)NCCc3ccc(Cl)cc3)ccc2F)cc1 |  | inconclusive: 40.2% [activator]
Cc1ccc2oc(=O)c(S(=O)(=O)c3ccc(C(C)(C)C)cc3)cc2c1 |  | inconclusive: 45.9% [activator]
Cc1ccc(CNC(=O)c2cc(-c3ccc(Cl)cc3)on2)cc1 |  | inconclusive: 34.7% [activator]
Cc1cc(NC(=O)CN2C(=O)c3cccnc3Sc3ccccc32)ccc1Br | inactive | 
O=C(NCc1ccccc1)c1ccc(CNS(=O)(=O)c2ccc(Br)cc2)cc1 |  | inconclusive: 32.7% [activator]
COc1ccc(Cl)cc1NC(=O)C1CC(=O)N(c2ccc(F)cc2)C1 (configuration not stated) | inconclusive [activator, single point] | 
COc1ccc(CNC(=O)c2cc3cc4cc(OC)ccc4nc3o2)cc1 |  | inconclusive: 31% [activator]
Cc1ccc(C)c(NC(=O)N2CCN(C(=O)c3nsc4ccccc34)CC2)c1 | inactive | 
COCCn1c(=O)c(C)nc2cnc(N3CCN(C)CC3)nc21 | inconclusive [activator, single point] | 
CCOc1ccc(C2C3=C(CCCC3=O)Nc3nc(C(F)(F)F)nn32)cc1OC (configuration not stated) | inconclusive [activator, single point] | 
Cc1nc2cccnc2n1-c1cccc(C(=O)N2CCN(c3cccc(Cl)c3)CC2)c1 |  | inconclusive: 52.6% [activator]
CCCn1c(NC(=O)C2COc3ccccc3O2)nc2ccccc21 (configuration not stated) | inconclusive [activator, single point] | 
O=c1oc2ccccc2n1CCCCCn1c(=O)oc2ccccc21 | inconclusive [activator, single point] | 
O=c1c(-c2ccc(F)cc2)nc2cnc(N3CCOCC3)nc2n1CCc1ccccc1 | inconclusive [activator, partial curve] | 
O=C(Cn1cc2c(n1)CCCC2)NCc1ccccn1 | inconclusive [activator, single point] | 

— PubChem BioAssay AID1948 (National Center for Advancing Translational Sciences (NCATS), 2009)
